# Where a name gives a salt, the structure may show the parent alone. Whole data set: some 1,900 compounds, median “cell viability of compound + 1 nM pemigatinib relative to pemigatinib-only (DMSO) wells” near 0.95, cut for the lowest 2% near 0.22. The list shows a part of the results.
# Test system: PDC-DUC18828
# Test: cell viability of compound + 1 nM pemigatinib relative to pemigatinib-only (DMSO) wells (fraction); PDC-DUC18828 is a patient-derived cholangiocarcinoma cell line; higher = less growth inhibition
# Conditions: first compound 1 µM; pemigatinib concentration 1 nM; 72 h
# Experimental: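 Selleck Bioactive library screen in the patient-derived FGFR2 fusion-positive ICC cell line PDC-DUC18828 (500 cells/well). Each compound was tested at 1 uM with 1 nM pemigatinib, in triplicate, for 72 h. Viability was read by CellTiter-Glo and normalised to plate DMSO controls. Value is the paper's averaged normalised viability.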
row,SMILES,cell viability
1,COc1cc([C@@H]2c3cc4c(cc3[C@@H](O[C@@H]3O[C@@H]5CO[C@@H](C)O[C@H]5[C@H](O)[C@H]3O)[C@H]3COC(=O)[C@H]23)OCO4)cc(OC)c1O [Etoposide] + CCN1C(=O)N(c2c(F)c(OC)cc(OC)c2F)Cc2cnc3[nH]c(CN4CCOCC4)cc3c21 [pemigatinib],0.57
2,CN(C)C(=S)NN=C(c1ccccn1)c1ccccn1 + CCN1C(=O)N(c2c(F)c(OC)cc(OC)c2F)Cc2cnc3[nH]c(CN4CCOCC4)cc3c21 [pemigatinib],0.302
3,COc1ccccc1OCC(O)CN1CCN(CC(=O)Nc2c(C)cccc2C)CC1 (stereo not drawn) [Ranolazine 2HCl] + CCN1C(=O)N(c2c(F)c(OC)cc(OC)c2F)Cc2cnc3[nH]c(CN4CCOCC4)cc3c21 [pemigatinib],0.997
4,COc1ccccc1OCC(O)CN1CCN(CC(=O)Nc2c(C)cccc2C)CC1 (stereo not drawn) [Ranolazine] + CCN1C(=O)N(c2c(F)c(OC)cc(OC)c2F)Cc2cnc3[nH]c(CN4CCOCC4)cc3c21 [pemigatinib],0.964
5,O=C1c2ccc(Nc3ccc(F)cc3F)cc2CCc2ccc(OC[C@H](O)CO)cc21 [Skepinone-L] + CCN1C(=O)N(c2c(F)c(OC)cc(OC)c2F)Cc2cnc3[nH]c(CN4CCOCC4)cc3c21 [pemigatinib],0.908
6,NC(=O)C(c1ccccc1)(c1ccccc1)[C@@H]1CCN(CCc2ccc3c(c2)CCO3)C1 [Darifenacin HBr] + CCN1C(=O)N(c2c(F)c(OC)cc(OC)c2F)Cc2cnc3[nH]c(CN4CCOCC4)cc3c21 [pemigatinib],0.894
7,CCCNCC(O)COc1ccccc1C(=O)CCc1ccccc1 (stereo not drawn) [Propafenone HCl] + CCN1C(=O)N(c2c(F)c(OC)cc(OC)c2F)Cc2cnc3[nH]c(CN4CCOCC4)cc3c21 [pemigatinib],0.982
8,C[C@H]1C[C@@H]2[C@H]([C@@H](O)C[C@@]3(C)[C@H]2CC[C@]3(O)C(=O)CO)[C@@]2(C)C=CC(=O)C=C12 [Methylprednisolone] + CCN1C(=O)N(c2c(F)c(OC)cc(OC)c2F)Cc2cnc3[nH]c(CN4CCOCC4)cc3c21 [pemigatinib],0.907
9,CC(=O)O[C@]1(C(C)=O)CC[C@H]2[C@@H]3C[C@H](C)C4=CC(=O)CC[C@]4(C)[C@H]3CC[C@@]21C [Medroxyprogesterone acetate] + CCN1C(=O)N(c2c(F)c(OC)cc(OC)c2F)Cc2cnc3[nH]c(CN4CCOCC4)cc3c21 [pemigatinib],0.929
10,O=C(O)c1cc(-c2ccccc2)nc2ccccc12 [Cinchophen] + CCN1C(=O)N(c2c(F)c(OC)cc(OC)c2F)Cc2cnc3[nH]c(CN4CCOCC4)cc3c21 [pemigatinib],1
11,COc1cc2c(Oc3ccc4[nH]c(C)cc4c3F)ncnc2cc1OCCCN1CCCC1 [Cediranib (AZD2171)] + CCN1C(=O)N(c2c(F)c(OC)cc(OC)c2F)Cc2cnc3[nH]c(CN4CCOCC4)cc3c21 [pemigatinib],0.914
12,CN(C)c1nc(N(C)C)nc(N(C)C)n1 [Altretamine] + CCN1C(=O)N(c2c(F)c(OC)cc(OC)c2F)Cc2cnc3[nH]c(CN4CCOCC4)cc3c21 [pemigatinib],0.927
13,Nc1nc2n[nH]nc2c(=O)[nH]1 [Azaguanine-8] + CCN1C(=O)N(c2c(F)c(OC)cc(OC)c2F)Cc2cnc3[nH]c(CN4CCOCC4)cc3c21 [pemigatinib],0.961
14,O=C(CCCN1CC=C(n2c(=O)[nH]c3ccccc32)CC1)c1ccc(F)cc1 [Droperidol] + CCN1C(=O)N(c2c(F)c(OC)cc(OC)c2F)Cc2cnc3[nH]c(CN4CCOCC4)cc3c21 [pemigatinib],0.938
15,CCO[C@@H]1OC(=O)C[C@@H]1NC(=O)[C@@H]1CCCN1C(=O)[C@@H](NC(=O)c1ccc(N)c(Cl)c1)C(C)(C)C + CCN1C(=O)N(c2c(F)c(OC)cc(OC)c2F)Cc2cnc3[nH]c(CN4CCOCC4)cc3c21 [pemigatinib],1.01
16,CCn1cc(C(=O)O)c(=O)c2ccc(C)nc21 [Nalidixic acid] + CCN1C(=O)N(c2c(F)c(OC)cc(OC)c2F)Cc2cnc3[nH]c(CN4CCOCC4)cc3c21 [pemigatinib],0.96
17,COc1ccc(-c2oc3c(CC=C(C)C)c(O[C@@H]4O[C@H](CO)[C@@H](O)[C@H](O)[C@H]4O)cc(O)c3c(=O)c2O[C@@H]2O[C@@H](C)[C@H](O)[C@@H](O)[C@H]2O)cc1 [Icariin] + CCN1C(=O)N(c2c(F)c(OC)cc(OC)c2F)Cc2cnc3[nH]c(CN4CCOCC4)cc3c21 [pemigatinib],0.948
18,COc1ccc2cc(CCC(C)=O)ccc2c1 [Nabumetone] + CCN1C(=O)N(c2c(F)c(OC)cc(OC)c2F)Cc2cnc3[nH]c(CN4CCOCC4)cc3c21 [pemigatinib],0.969
19,Cc1cc(Cn2cnc3c2CC(C(=O)O)N(C(=O)C(c2ccccc2)c2ccccc2)C3)ccc1N(C)C (stereo not drawn) + CCN1C(=O)N(c2c(F)c(OC)cc(OC)c2F)Cc2cnc3[nH]c(CN4CCOCC4)cc3c21 [pemigatinib],0.951

row,SMILES,cell viability
1,O=c1c(O)c(-c2cc(O)c(O)c(O)c2)oc2cc(O)cc(O)c12 [Myricetin] + CCN1C(=O)N(c2c(F)c(OC)cc(OC)c2F)Cc2cnc3[nH]c(CN4CCOCC4)cc3c21 [pemigatinib],0.958
2,Cc1ccc(S(=O)(=O)NC(=O)NN2CC3CCCC3C2)cc1 (stereo not drawn) [Gliclazide] + CCN1C(=O)N(c2c(F)c(OC)cc(OC)c2F)Cc2cnc3[nH]c(CN4CCOCC4)cc3c21 [pemigatinib],0.953
3,CCCC[C@@H](C=O)NC(=O)[C@H](CC(C)C)NC(=O)OCc1ccccc1 [Calpeptin] + CCN1C(=O)N(c2c(F)c(OC)cc(OC)c2F)Cc2cnc3[nH]c(CN4CCOCC4)cc3c21 [pemigatinib],1.01
4,Cc1ccc(NC(=O)c2ccc(CN3CCN(C)CC3)cc2)cc1Nc1nc(-c2cccnc2)cs1 [Masitinib (AB1010)] + CCN1C(=O)N(c2c(F)c(OC)cc(OC)c2F)Cc2cnc3[nH]c(CN4CCOCC4)cc3c21 [pemigatinib],1.11
5,COc1nc(C)nc(Cl)c1NC1=NCCN1 [Moxonidine] + CCN1C(=O)N(c2c(F)c(OC)cc(OC)c2F)Cc2cnc3[nH]c(CN4CCOCC4)cc3c21 [pemigatinib],1.02
6,O=C(Nc1cc(C(F)(F)F)ccc1N1CCCCC1)c1ccncc1 + CCN1C(=O)N(c2c(F)c(OC)cc(OC)c2F)Cc2cnc3[nH]c(CN4CCOCC4)cc3c21 [pemigatinib],1.01
7,COc1ccc2[nH]cc(CCNC(C)=O)c2c1 [Melatonin] + CCN1C(=O)N(c2c(F)c(OC)cc(OC)c2F)Cc2cnc3[nH]c(CN4CCOCC4)cc3c21 [pemigatinib],1
8,O=C([O-])c1ccccc1O.[Na+] [Sodium salicylate] + CCN1C(=O)N(c2c(F)c(OC)cc(OC)c2F)Cc2cnc3[nH]c(CN4CCOCC4)cc3c21 [pemigatinib],0.963
9,Cc1ccc(C(=O)c2cc(O)c(O)c([N+](=O)[O-])c2)cc1 [Tolcapone] + CCN1C(=O)N(c2c(F)c(OC)cc(OC)c2F)Cc2cnc3[nH]c(CN4CCOCC4)cc3c21 [pemigatinib],0.967
10,O=C(N/N=C/c1ccc(O)c(O)c1)c1cc2ccccc2cc1O [Dynasore] + CCN1C(=O)N(c2c(F)c(OC)cc(OC)c2F)Cc2cnc3[nH]c(CN4CCOCC4)cc3c21 [pemigatinib],0.955
11,C=CC[C@@H]1/C=C(\C)C[C@H](C)C[C@H](OC)[C@H]2O[C@@](O)(C(=O)C(=O)N3CCCC[C@H]3C(=O)O[C@H](/C(C)=C/[C@@H]3CC[C@@H](O)[C@H](OC)C3)[C@H](C)[C@@H](O)CC1=O)[C@H](C)C[C@@H]2OC [Tacrolimus (FK506)] + CCN1C(=O)N(c2c(F)c(OC)cc(OC)c2F)Cc2cnc3[nH]c(CN4CCOCC4)cc3c21 [pemigatinib],0.893
12,O=C(O)CCNc1cc(N2CCc3ccccc3CC2)nc(-c2ccccn2)n1 + CCN1C(=O)N(c2c(F)c(OC)cc(OC)c2F)Cc2cnc3[nH]c(CN4CCOCC4)cc3c21 [pemigatinib],0.931
13,COc1ccc(COc2ccc(Cc3cnc(N)nc3N)cc2OC)cc1 + CCN1C(=O)N(c2c(F)c(OC)cc(OC)c2F)Cc2cnc3[nH]c(CN4CCOCC4)cc3c21 [pemigatinib],0.965
14,Cc1cc([N+](=O)[O-])ccc1NS(=O)(=O)c1cc(Cl)ccc1Cl + CCN1C(=O)N(c2c(F)c(OC)cc(OC)c2F)Cc2cnc3[nH]c(CN4CCOCC4)cc3c21 [pemigatinib],0.912
15,CC(=O)O/N=C1\C(=O)N(Cc2cc(Cl)ccc2Cl)c2ccc(Cl)cc21 + CCN1C(=O)N(c2c(F)c(OC)cc(OC)c2F)Cc2cnc3[nH]c(CN4CCOCC4)cc3c21 [pemigatinib],0.938
16,O=C(Cc1cccc(OC(F)(F)F)c1)Nc1ccc(CCCCc2nnc(NC(=O)Cc3ccccn3)s2)nn1 + CCN1C(=O)N(c2c(F)c(OC)cc(OC)c2F)Cc2cnc3[nH]c(CN4CCOCC4)cc3c21 [pemigatinib],0.833
17,Cc1ncc([N+](=O)[O-])n1CCO [Metronidazole] + CCN1C(=O)N(c2c(F)c(OC)cc(OC)c2F)Cc2cnc3[nH]c(CN4CCOCC4)cc3c21 [pemigatinib],1.04
18,CCN(CC)CC#CCOC(=O)C(O)(c1ccccc1)C1CCCCC1 (stereo not drawn) [Oxybutynin] + CCN1C(=O)N(c2c(F)c(OC)cc(OC)c2F)Cc2cnc3[nH]c(CN4CCOCC4)cc3c21 [pemigatinib],0.993
19,CCN(CC)CC#CCOC(=O)C(O)(c1ccccc1)C1CCCCC1 (stereo not drawn) [Oxybutynin chloride] + CCN1C(=O)N(c2c(F)c(OC)cc(OC)c2F)Cc2cnc3[nH]c(CN4CCOCC4)cc3c21 [pemigatinib],0.875
